Measurements as given in PMC4336329 (PLoS ONE, 2015).
The campaign covered roughly 310,000 compounds. About 14,000 (4.5%) showed an effect of 50% or more. The effect is printed as a negative number. The list shows a part of the results.

target: human ether-à-go-go-related gene (hERG) potassium channel (human, UniProt Q12809); assay: primary screen, population patch clamp on CHO cells stably expressing hERG
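Note: peak tail current of the secondary pulse compared with the same well before compound.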

human ether-à-go-go-related gene (hERG) potassium channel, sequence (Q12809 whole entry, looked up): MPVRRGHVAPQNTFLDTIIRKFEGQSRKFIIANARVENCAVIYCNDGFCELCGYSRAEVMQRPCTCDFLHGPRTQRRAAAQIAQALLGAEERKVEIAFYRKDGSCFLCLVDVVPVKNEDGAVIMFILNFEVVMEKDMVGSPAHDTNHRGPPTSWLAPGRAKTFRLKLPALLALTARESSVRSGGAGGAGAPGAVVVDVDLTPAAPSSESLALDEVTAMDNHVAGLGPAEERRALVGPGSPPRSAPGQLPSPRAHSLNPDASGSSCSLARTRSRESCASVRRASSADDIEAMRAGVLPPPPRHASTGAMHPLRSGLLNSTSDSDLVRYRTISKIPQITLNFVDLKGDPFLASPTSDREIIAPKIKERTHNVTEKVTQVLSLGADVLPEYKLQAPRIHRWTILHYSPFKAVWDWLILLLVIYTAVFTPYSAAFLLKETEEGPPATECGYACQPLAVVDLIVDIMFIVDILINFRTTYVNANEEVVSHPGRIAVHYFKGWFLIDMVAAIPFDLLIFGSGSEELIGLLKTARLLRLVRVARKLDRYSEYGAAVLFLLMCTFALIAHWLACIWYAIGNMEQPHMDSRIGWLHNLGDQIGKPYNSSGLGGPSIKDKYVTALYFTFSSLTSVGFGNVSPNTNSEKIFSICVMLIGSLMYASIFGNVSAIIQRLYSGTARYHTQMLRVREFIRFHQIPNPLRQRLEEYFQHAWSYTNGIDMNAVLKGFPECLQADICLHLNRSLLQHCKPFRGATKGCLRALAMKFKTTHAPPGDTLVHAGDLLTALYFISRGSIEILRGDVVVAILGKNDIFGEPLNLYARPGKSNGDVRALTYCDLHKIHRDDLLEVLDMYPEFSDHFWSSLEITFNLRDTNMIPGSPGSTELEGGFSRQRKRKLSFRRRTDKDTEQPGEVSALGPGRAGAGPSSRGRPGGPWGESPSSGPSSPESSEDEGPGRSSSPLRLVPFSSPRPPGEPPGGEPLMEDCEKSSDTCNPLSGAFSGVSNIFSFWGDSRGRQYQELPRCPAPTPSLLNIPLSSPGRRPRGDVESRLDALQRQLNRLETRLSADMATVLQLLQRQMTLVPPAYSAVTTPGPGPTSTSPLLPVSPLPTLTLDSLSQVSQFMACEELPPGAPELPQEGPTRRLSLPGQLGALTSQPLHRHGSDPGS

SMILES | hERG current change (%, negative = inhibition) at 10uM [%]
Cc1ccc(N(C(C)C(=O)NCc2ccncc2)S(C)(=O)=O)cc1C (stereo not drawn) | 11.7
Cc1[nH]nc(N=CC2=C(O)CC(c3ccco3)CC2=O)c1-c1ccccc1 (stereo not drawn) | 13.7
Cc1ccc(NCCC#N)cc1C | 0.785
CC1CCN(c2ccc(NC(=O)C3CCCN3S(=O)(=O)c3ccc(F)cc3)cc2)CC1 (stereo not drawn) | -14.2
CCOC(=O)Cn1c(=O)oc2cc(S(=O)(=O)NCC3CCCO3)ccc21 (stereo not drawn) | -5.92
CC(c1ccccc1)N1CC(C(=O)N2CCN(c3ccccc3)CC2)CC1=O (stereo not drawn) | -27.2
COc1ccc(NC(=O)CCc2nc3ccccc3[nH]2)cc1 | 8.56
CC(C)C(c1nnnn1C1CCCC1)N1CCCCC1.Cl (stereo not drawn) | 11.9
CCC(=O)N1CCc2cc(Br)cc(S(=O)(=O)CC(=O)OC)c21 | 10.6
CN(C)c1ccc(C(=O)/C=C/c2ccco2)cc1 | 14.9
COc1ccc(-n2nc(C(=O)NCC(=O)N3CCOCC3)c3ccccc3c2=O)cc1OC | -0.283
COc1ccc(-c2csc(Nc3ncccc3C)n2)cc1 | -7.45
Cc1ccc2c(CNCc3ccco3)cc(=O)oc2c1 | -16.5
Cc1c(Cl)cn2c(=O)cc(CN(C)Cc3nc4ccccc4c(=O)[nH]3)nc2c1Cl | -44.2
Cc1ccc(NC(=O)c2nc[nH]c2C(=O)N2CCN(C(=O)OC(C)(C)C)CC2)cc1 | -22.5
COc1ccccc1-c1cc(C(=O)N/N=C\c2cn(C)nc2C)c2ccccc2n1 | -15.2
O=C1NC(c2cccs2)C(C(=O)c2ccccc2)C(O)(C(F)(F)F)N1 (stereo not drawn) | 8
CCOC(=O)C1C(c2ccc(OC)c(OC)c2)c2c([nH][nH]c2=O)CC1(C)O (stereo not drawn) | 3.61
Cc1ccc(C)c(NC(=O)Cc2csc(-c3ccccc3)n2)c1 | -3.58
Cn1cc(Br)c(C(=O)N/N=C/c2cccc(OC3CSC3)c2)n1 | -2.36
CCN(CC)S(=O)(=O)c1cccc(-n2c(O)c(C=Nc3ccccc3C(=O)O)c3ccccc3c2=O)c1 | 0.00558
CC(=O)c1ccc(NS(=O)(=O)c2ccc3ccccc3c2)cc1 | -0.55
CCOP(=O)(c1ccc(N(C)C)cc1)C(O)c1c(Cl)cccc1Cl (stereo not drawn) | -3.45

SMILES | hERG current change (%, negative = inhibition) at 10uM [%]
O=C(CSc1nnc(CNC(=O)c2c(F)cccc2F)o1)NCc1ccc(F)cc1 | 5.93
CCCOc1ccccc1OCC(=O)N1CCN(S(=O)(=O)c2ccc(Cl)cc2)CC1 | -17
Cn1cccc1/C=N/NC(=O)c1ccncc1 | 8.02
CC(=N\NC(=O)c1cc(Br)ccc1O)/C(=N/O)C(=O)Nc1ccccc1 | 48.4
COC(=O)CSc1nnc2cc(C)c3ccccc3n12 | -18.6
CCOc1ccccc1NC(=O)Cn1c(=O)oc2ccccc21 | 10.7
Cc1ccc(C)c(NC(=O)CCC(=O)NNS(=O)(=O)c2ccc(Cl)cc2)c1 | 0.59
CCOC(=O)c1[nH]c(C)c(/C(O)=C2\C(=O)C(=O)N(CCCN(C)C)C2c2cccnc2)c1C (stereo not drawn) | 4.27
COc1cccc(OCc2nnc(SCC(=O)OC3CCCCC3)n2C)c1 | -13.2
CCN1CCN(C(c2ccccc2)c2sc3nc(C)nn3c2O)CC1 (stereo not drawn) | -9.32
Cc1cc(C)n2nc(-c3cnn(C)c3C(F)(F)F)cc2n1 | 2.23
Cn1c(=O)[nH]c(=O)c2c1nc(N1CCCCCC1)n2CCCSc1nnnn1-c1ccccc1 | -30.4
O=C(c1ccc(F)c(F)c1)N1CCCc2ccccc21 | 0.0993
O=C(Cn1cnc2cc([N+](=O)[O-])ccc2c1=O)Nc1ccccc1-c1ccccc1 | -2.95
COc1ccc(CCNC(=O)Cn2c(=O)c3cccn3c3cccnc32)c(OC)c1OC | 15
Cc1ccc(S(=O)(=O)N2CCCC(C(=O)NC3CCCC3)C2)cc1 (stereo not drawn) | 10.3
CCOC(=O)c1[nH]c(C)c(/C(O)=C2\C(=O)C(=O)N(CCCN(CC)CC)C2c2cccnc2)c1C (stereo not drawn) | -1.32
COc1ccccc1CNC(=O)C1CCCCN1S(=O)(=O)c1ccccc1 (stereo not drawn) | -46.4
O=C(/C=C/c1ccccc1Cl)N1CCOCC1 | 13.5
CCOC(=O)c1sc(NC(=O)CCc2ccccc2)nc1C | 27
CCN(CC)CCCNc1ccc(-c2nnc(-c3ccc(OCC(C)C)cc3)o2)cn1 | -46.3
O=C(C1CC1)N(CCN(Cc1ccccc1)C(=O)C1CC1)Cc1ccccc1 | -28.9
